Experimental data reported in PubChem BioAssay (Tox21).
“And” between values parts separate entries of the source, which are not always exact repeats. Identical values can stand only once. The inconclusive results got no clear call from the source; some entries with a clear call stand among them for comparison. Potencies of inconclusive entries are doubtful fits and often do not repeat. The source made the active and inactive calls. Unless noted, calls follow the shape of the dose curve; as a rule, active = well fitted cell-killing curve with a large enough effect in the repeat runs; inconclusive = weak or mixed curves, or effect the other way; inactive = no such curve, though single readings can be large or run the other way.

molecular target: Progesterone receptor (Homo sapiens) (UniProt P06401); assay: qHTS assay to identify small molecule antagonists of the progesterone receptor (PR) signaling pathway (AID 1346795; active = well fitted inhibition curve with a large enough effect in the signal ratio in the repeat runs, not every such curve was filed as active; inconclusive = weak or mixed curves; the % refers to the signal ratio; as to activity change, negative = inhibition: % is scaled to controls: 0 for no effect and ±100 for the full control effect); conditions: PR-UAS-bla HEK293T, beta-lactamase FRET ratio, 16 h; activity change, negative = inhibition: at 92.4 µM (top of the series) unless noted
UniProt P06401, sequence (P06401 whole entry, looked up): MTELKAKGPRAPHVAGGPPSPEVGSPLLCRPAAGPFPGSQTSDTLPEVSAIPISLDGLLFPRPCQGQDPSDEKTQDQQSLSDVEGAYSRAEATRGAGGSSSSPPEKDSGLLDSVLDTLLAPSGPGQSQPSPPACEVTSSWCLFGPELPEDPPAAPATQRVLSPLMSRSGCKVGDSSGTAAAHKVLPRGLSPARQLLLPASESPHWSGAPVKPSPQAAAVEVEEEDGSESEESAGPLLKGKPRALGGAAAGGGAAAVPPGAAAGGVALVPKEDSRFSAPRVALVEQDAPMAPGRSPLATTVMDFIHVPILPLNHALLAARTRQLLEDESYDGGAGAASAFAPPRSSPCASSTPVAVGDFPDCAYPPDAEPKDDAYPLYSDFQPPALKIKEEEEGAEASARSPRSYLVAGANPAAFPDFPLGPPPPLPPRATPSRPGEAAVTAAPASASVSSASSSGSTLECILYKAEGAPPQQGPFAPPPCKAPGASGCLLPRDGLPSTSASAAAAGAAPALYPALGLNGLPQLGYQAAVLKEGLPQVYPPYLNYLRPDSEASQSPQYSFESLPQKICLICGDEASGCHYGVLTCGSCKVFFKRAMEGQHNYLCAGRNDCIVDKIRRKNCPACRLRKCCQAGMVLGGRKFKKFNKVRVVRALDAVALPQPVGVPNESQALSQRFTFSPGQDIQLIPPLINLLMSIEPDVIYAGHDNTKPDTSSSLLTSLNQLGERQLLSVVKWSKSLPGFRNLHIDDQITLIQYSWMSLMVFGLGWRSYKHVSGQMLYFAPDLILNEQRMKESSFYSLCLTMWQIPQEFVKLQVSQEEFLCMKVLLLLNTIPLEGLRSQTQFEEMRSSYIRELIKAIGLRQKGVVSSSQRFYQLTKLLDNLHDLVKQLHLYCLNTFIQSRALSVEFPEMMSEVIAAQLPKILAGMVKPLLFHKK
In short: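 Antagonist mode: compounds tested against 1 nM (final) promegestone stimulation in HEK293T cells expressing PR-UAS-bla reporter, 16 hr at 37C, 5% CO2; beta-lactamase activity detected via B/G FRET substrate after 2 hr at room temperature.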
Potency is read from the fitted curve at half-maximal effect; tags tell the direction and shape of the fitted curve.

Row | SMILES | activity change, negative = inhibition | Potency
1 | FC(F)OC(Cl)C(F)(F)F (configuration not stated) | inconclusive: -1.74% | –
2 | O=C1OCCO1 | – | inactive
3 | C[N+]12CCC(CC1)C(OC(=O)C(O)(c1ccccc1)c1ccccc1)C2 (configuration not stated) | – | inactive
4 | CCc1cc(C2=C(C(=O)O)N(c3ccccc3C(F)(F)F)S(=O)(=O)c3ccccc32)cc2c1OCO2 | inconclusive: -26.6% | –
5 | O=S1OCCO1 | – | inactive
6 | COc1ccc2c(c1)C(=O)N(CCc1ccc(S(=O)(=O)NC(=O)NC3CCCCC3)cc1)C(=O)C2(C)C | inconclusive: 27% [at 42.5 µM] | –
7 | Cc1ccc(N=Nc2c(O)ccc3ccccc23)c(C)c1 | inconclusive: -14.8% [at 42.5 µM] | –
8 | NC(=O)Cn1c(=O)cc(CCN2CCN(c3nccc4sccc34)CC2)c2ccc(F)cc21 | – | inactive
9 | CCCCCC1CCC(=O)O1 (configuration not stated) | – | inactive
10 | C[C@@H]1O[C@@H](O[C@@H]2[C@@H](O)[C@H](OCCc3ccc(O)c(O)c3)O[C@H](CO[C@@H]3O[C@H](CO)[C@@H](O)[C@H](O)[C@H]3O)[C@H]2OC(=O)/C=C/c2ccc(O)c(O)c2)[C@H](O)[C@H](O)[C@H]1O | inconclusive: 8.69% | –
11 | CCCC(=O)Nc1ccc(O)c(C(C)=O)c1 | inconclusive: -25.5% [at 42.5 µM] | –
12 | CCC(C)(C)C1CCC(O)CC1 (configuration not stated) | – | inconclusive: 27.3 µM
13 | CCOc1ccc2c(c1)C(C)CC(C)(C)N2 (configuration not stated) | inconclusive: -35.8% | –
14 | COc1ccc2c(c1)c(CC(=O)O)c(C)n2C(=O)c1ccc(Cl)cc1 | inconclusive: -32% | inconclusive: 27.3 µM [rising, partial curve]
15 | CCC(Cc1ccccc1)(C(=O)c1ccc(N2CCOCC2)cc1)N(C)C (configuration not stated) | – | active: 48.6 µM
16 | CCOC(=O)COc1ccc2c(c1)CC(NCC(O)c1cccc(Cl)c1)CC2 (configuration not stated) | – | inactive
17 | O=S(=O)(O)c1cc(Cl)c(Cl)cc1Cl | – | inconclusive: 61.1 µM [rising, partial curve]

test system: not listed separately; assay: qHTS assay to identify small molecule antagonists of the progesterone receptor (PR) signaling pathway - cell viability counter screen (AID 1346798); conditions: PR-UAS-bla HEK293T viability, CellTiter-Glo luminescence, 16 h; series mostly up to 92.4 µM; also: nearly all actives have a fitted effect of over 50% in size
In short: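 Counter screen for cytotoxicity: viability of PR-UAS-bla HEK293T cells was measured with CellTiter-Glo luminescence following 16 hr compound exposure in the presence of R5020.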

Row | SMILES | Potency
18 | CCc1cc(C2=C(C(=O)O)N(c3ccccc3C(F)(F)F)S(=O)(=O)c3ccccc32)cc2c1OCO2 | inconclusive: 76.1 µM [rising, single point]
19 | Oc1ccc(C(O)CNCCCCCCNCC(O)c2ccc(O)c(O)c2)cc1O (configuration not stated) | inconclusive: 0.119 µM [cytotoxic, single point]
20 | O=C(O)c1cc(N=Nc2ccc(S(=O)(=O)Nc3ccccn3)cc2)ccc1O | inconclusive: 68.6 µM [rising, single point] and inconclusive: 33.5 µM [rising, single point]
21 | FC(F)(F)C(Cl)(Cl)Cl | inconclusive: 68.7 µM [rising, single point]
22 | NC(=O)Cn1c(=O)cc(CCN2CCN(c3nccc4sccc34)CC2)c2ccc(F)cc21 | inconclusive: 24.3 µM [rising, full curve, poor fit]
23 | COC(=O)/C=C/C(C)=C\C=C\C(C)=C\C=C\C=C(C)\C=C\C=C(C)\C=C\C(=O)O | inconclusive: 0.243 µM [cytotoxic, single point]
24 | COc1ccc2c(c1)c(CC(=O)O)c(C)n2C(=O)c1ccc(Cl)cc1 | inconclusive: 15.4 µM [cytotoxic, partial curve, poor fit]
25 | CCC(Cc1ccccc1)(C(=O)c1ccc(N2CCOCC2)cc1)N(C)C (configuration not stated) | inconclusive: 34.4 µM [rising, partial curve, poor fit]
26 | O=S(=O)(O)c1cc(Cl)c(Cl)cc1Cl | active: 30.6 µM
